According to the supplement of paper PMC11417369:
± gives the standard deviation of the averaged measurements. This is one part of the list.

system: PfAP2-I AP2 domain 3 (GST-tagged); assay: gcPBM binding intensity (ln(normalized median fluorescence intensity)); higher = stronger DNA binding
Summary of the method: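 Probes on an Agilent 4 × 180k array were primer-extended, double-stranded and 36 bp long, taken from intergenic genomic regions, with negative controls added. GST-tagged P. falciparum DNA-binding domains from E. coli, about 25 μg on average, were applied to the array for 1 h in 1× PBS containing 1% milk, 0.2 mg/ml BSA, 0.5% salmon testes DNA and 0.03% Triton X-100. Binding intensity, obtained after Alexa488 anti-GST antibody detection and a 488 nm scan, is the highest Masliner-normalised natural-log median intensity across replicate spots of either probe orientation.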

Sequence | gcPBM binding intensity (ln)
AGGAAAATTTTATTTGCACACATTATTACGTCTAAA [CACACA_site2337] | 9.9 ± 0.4
CATATATATATTGGAAGTACATATTTAATATTCATT [XGTACX_site3545] | 7.68 ± 0.53
ACATGTAATATAATGTGTACATATACAAAGGTATAT [XGTACX_site4145] | 7.74 ± 0.58
ATAAAGTATATTATATGTACATATATATATTATATA [XGTACX_site1345] | 7.71 ± 0.28
AGATGAGAAATATATACACACAATAATACCTATTTA [CACACA_site876] | 7.5 ± 0.64
AAAATAAAAAAAATAAATAAAAAAAATAATAATAAA [CACACA_negctrl_site563] | 7.25 ± 0.57
TCATAAATATAAAGTGTGCACTTGAATAATATGTAT | 9.74
TAAATAAATCTGTGCTTGCACTTTTTTTGTTATTTT | 8.06 ± 0.58
ATATAAACATATAATAGTACACTTCGATAATTTTAT [XGTACX_site3321] | 7.8 ± 0.52
ATTTAACATATAAAATGTACATATATATATATATTT [XGTACX_site2525] | 7.87 ± 0.11
GTACCATCAAAATAAATATATATATATATATATTTT [GTGCAC_negctrl_site646] | 7.72 ± 0.38
CTCTTTTCTTATAATACACACAGTAATATTTATATA [CACACA_site6824] | 8.38 ± 0.43
AATAAAAAAAATTTCTGTACATATATTTATTATATA [XGTACX_site1883] | 7.46 ± 0.46
CAAACCCACCAACACACACACACAAAAATGATTAAA [CACACA_site2432] | 8.03 ± 0.23
ATATATTTTGATTGCACACAGAATTTAAATCATGAT [CACACA_site2343] | 9.27 ± 0.15
GAAGATATATAATAATTCATAGTTTTTTAATTTAAA [TGCATGCA_negctrl_site295] | 7.21 ± 0.19
TACTTTTTTATTTGGTGTACAAATAAAATCATAATG [XGTACX_site1802] | 8.24 ± 0.057
ATTATTTTTTTTGAAGTGCAATATTATTTTTAATCA | 10.6 ± 0.54
TATATTTTTATGTGTGTGCACAAAATAACAAAATAT [GTGCAC_site9596] | 11.1 ± 0.35
TATACTACCCAGAGCTGTACAAAATAATAATAAGTT [XGTACX_site1045] | 8.02 ± 0.82
ATGGTTATATTTGAAGTGCAAAAAAAAATATATGTA | 9.93 ± 0.099
ATGTGGATTTTATAATGTACATATGATATTATTTTG [XGTACX_site7930] | 7.73 ± 0.45
CAATTCAATATATATACACACACACTATTAATAATT [CACACA_site9256] | 7.98 ± 0.44

Sequence | gcPBM binding intensity (ln)
GTTAAGTGGATATATACACACATATGCAATACATGA [CACACA_site7427] | 8.19 ± 0.44
ATTCCTTTATTATCACGTACTTATAAAATATAGTAT [XGTACX_site7498] | 8.35 ± 0.42
TTTTAATAAATCATTTTCCTAATATTTATATTTGCT [TGCATGCA_negctrl_site232] | 7.29 ± 0.61
TTTTTCATTTAGCTTTTACACACTATATATTATTGA [CACACA_site7888] | 7.94 ± 0.86
ATAAACAGATAAAAGGGTACACACATATATACATGT [XGTACX_site452] | 7.96 ± 0.47
TTATATATATATTGTTCACACATAATATAAATATTT [CACACA_site5835] | 7.45 ± 0.49
TTAAATAAAATAAAAACATGCACACTTTATTTTTTT [TGCATGCA_site719] | 8.5 ± 0.54
CATATAAAATAATTCACACAAATATACAAATACCCA [CACACA_site5340] | 7.79 ± 0.39
TATTTAATTTTTAAATGTACATATAAAATAATATAT [XGTACX_site2422] | 7.9 ± 0.23
AAAAAAAATTTCTTCTGTACGCATAAATTTTTATTA [XGTACX_site8721] | 8.05 ± 0.17
TTTTTCAGAAAAGAAACACACATATATATATTTATA [CACACA_site2372] | 7.63 ± 0.39
AATGATAATATTTCCTTCTTTTTTACTTCTTTCTTT [CACACA_negctrl_site776] | 7.79 ± 0.67
AAAATGGTTTATAAATGTACATATATTATATATAAC [XGTACX_site7959] | 7.79 ± 0.43
CCTATCCAGACATATACACACATATCTATTTATATA [CACACA_site5001] | 8.01 ± 0.57
TTTACTTTCCCAAGTTGTACTGCTTCTAAGCTTTTT [XGTACX_site2708] | 7.63 ± 0.58
TATAAAAAATAATACACACACATGGCGACAAAATAA [CACACA_site2420] | 8.09 ± 0.64
ACGTTTTATAATTAATGTACAAATATTAAAATTGCA [XGTACX_site7869] | 7.86 ± 0.44
GAATAAATTAAAAATGCACACTTTGATGGGTACATT [CACACA_site5220] | 8.76 ± 0.014
TATATTTGCAGTAATAATAATTATTATAAAAGATAA [XGTACX_negctrl_site547] | 8.6 ± 0.28
TATGAATGGTTAAGTACACACATATTAAGATATGTA [CACACA_site5852] | 7.53 ± 0.3
TTATTTATTTTAAATTCACACATCGTGCTATTATAT [CACACA_site5003] | 8.85 ± 0.11
TCATATATTTATGTATGTACATATATATATAGATTA [XGTACX_site380] | 7.4 ± 0.2
AAAAATATAATATAATGTACACAAAAAAAAAAATTC [XGTACX_site3657] | 7.87 ± 0.59

Sequence | gcPBM binding intensity (ln)
TTTTTATAACGTAATAAATAAAACGTCTATACTATA [XGTACX_negctrl_site176] | 7.51 ± 0.5
TATATTATTATAATTTGTACATATCTAATTATATAT [XGTACX_site5342] | 7.63 ± 0.23
TAAAGATATTATTTTTGTACATATTGATATAATGAA [XGTACX_site6571] | 7.52 ± 0.35
AATTAGACATAATATACACACATATATTATAGATAT [CACACA_site7297] | 7.54 ± 0.58
ATATAACATAGACACACACACATATAAATATATTAT [CACACA_site7865] | 7.96 ± 0.45
CTTTATAAAATAAGAGTGCGTTATATTGAATTGTAT [GTGCAC_site9390] | 10.9 ± 0.6
ATATAAGATTTAAGAAGTACAATTATACAGTAGATC [XGTACX_site7501] | 8.08 ± 0.49
ATATATATATAGTGCACACTTAAGAATATAAAGAGG [CACACA_site1151] | 11.5 ± 0.3
CTATAAATATTTTATTGTACACACTTTTTATGAATG [XGTACX_site6711] | 8.2 ± 0.47
AAAATTTTTAGTTATACACACAACATAGAAAATATT [CACACA_site328] | 7.86 ± 0.54
CACATACACCCATACACACACATATATATTAAGATA [CACACA_site4459] | 8.23 ± 0.11
AATACATACAGACACACACACACATATATATATATA [CACACA_site3558] | 9.36 ± 0.18
AAACTTAATATCGGTACACACACAAGATAAGAATTA [CACACA_site8200] | 7.75 ± 0.56
ATGATAAACATGGATACACACATATAGATTGCATAT [CACACA_site6843] | 7.8 ± 0.5
ATTTCTCTATCGTAATGTACATAAAAAAGAAAAACA [XGTACX_site6374] | 7.86 ± 0.47
TTATTAAATTCATAAGTGCATTTATGATTAATTTTT [GTGCAC_site9749] | 9.86
ATATATATTAACAATACACACGTGTATACCTTATTG [CACACA_site5258] | 8.06 ± 0.68
TTCATCTTAAAATTGGGTACATAACACAAAGTATAA [XGTACX_site1894] | 7.87 ± 0.55
TTACATGTAAAAGGTACACACATTATGTATACAAAT [CACACA_site1117] | 8.14 ± 0.52
TTTTTTTTTTTTTTTTGTCCGTACTGCTTTGTGTTT [XGTACX_site3687] | 8.11 ± 0.7
TCTAATTACAAAAACATACACACAAAAAAAAAAAAA [CACACA_site3783] | 7.98 ± 0.83
ATGTACAAAATAAGCACACACAAAAAAAAAAAAAAT [CACACA_site2998] | 8.29 ± 0.16
TCAAAAATAAAGATCACACATATATATATATATATA [CACACA_site4381] | 9.53 ± 0.66

Sequence | gcPBM binding intensity (ln)
CCTATAAATGCATTCACACATATATATTTATATTAT [CACACA_site6086] | 8.09 ± 0.41
GTAAGAAACAGACACACACACATATATATATATATA [CACACA_site794] | 9.44 ± 0.56
AATAATTTTATCGGTACACACTGTATGCATAATATT [CACACA_site4364] | 8.15 ± 0.66
GAACAGTTTGTTTAGTGTACTTTTTTTTTTTTTTTT [XGTACX_site8881] | 8.81 ± 0.44
CTTAATTTAATGAAATGTACATATAAAAATATTATA [XGTACX_site3303] | 7.62 ± 0.35
TTTGATCGATGGATTTAACACACAAAAAAAAAAAAA [CACACA_site9279] | 7.98 ± 0.55
TACCAAATTTATTCTTGTACATATATATATATATAT [XGTACX_site4832] | 9.35 ± 0.43
AATATAGAAATAAATATATCACATTTGTGTTTAAAC [XGTACX_negctrl_site68] | 7.44 ± 0.54
TTTATGACTTGAAAAAGTACACATATATTTATGCAA [XGTACX_site5451] | 7.91 ± 0.2
TTGTTTTCTTTTTCTTTTCTTTTTCTTTTTTCTTTT [GTGCAC_negctrl_site629] | 7.55 ± 0.73
TATATATATATAAAGACACACATCTATAGAATGTTA [CACACA_site2557] | 9.21 ± 0.36
TATTTATATTTATACACACACACAAAAAAAAAAAAA [CACACA_site6817] | 8.16 ± 0.57
TATATATATATACCTTGTACTTACATTCGCATATAA [XGTACX_site2466] | 9.32 ± 0.42
AAAAAAAAAAAAAAAGCACACACACCGATGTGTATA [CACACA_site8224] | 8.79 ± 0.38
CCATTACCATATAAAACACACAAACATACATACATA [CACACA_site5952] | 7.87 ± 0.52
GTATAATTATGTGCACGTACATATTTTATTATATAT [XGTACX_site8586] | 10 ± 0.28
ACATAAATATATGACACACACACATATTATATATAT [CACACA_site3065] | 8.36 ± 0.52
GTACGTTAGATATATACACACATACATAATAAAGAA [CACACA_site7327] | 8.04 ± 0.59
TTACCCATTCCCTTTACATGCAATTTGTATTAATAA [TGCATGCA_site412] | 8.46 ± 0.35
TTAATTCTACTTATTACACACATATTAAGCAAAAAT [CACACA_site4921] | 7.93 ± 0.35
